The source gives no read counts; variants with many changes may rest on few reads.
B1: LINE1-mini (parent)
chain: GGCAGAGCUCAACACAGCGUGGCAAAGUGGCUGUGGCUAGACUGCC

Variants of: B1
Assay: self-cleavage, relative activity (ratio to wild type); higher = more cleavage; in vitro, sequencing; the parent is a self-cleaving ribozyme

Variant	self-cleavage
C10U C15A U20A A25C C45A	0.02
G7C A14C U32C U43C C45G	0.03
G1C C31A U43G	0
G2A A16U G22U	0.44
G1C C18G A24U G27C	0.03
G2C G33C G40U	0.03
U9G A14U U34A G35U	0
G7C A26C G33U	0.03
C18A C23A G30A G40A	0.29
C3A A6C G7C G21C A25C	0.15
A16U G22A G40U G44U C46A	0.02
A6G C8G A12U A14G G17A C23A G44U	0.04
G2U G7A A16G U32G	0.05
G21A C23U G30U A39C	0.38
A14C C18A G35C	0.05
A12U G19U U20C U32G C42U	0.01
C8A C31G G33U	0.04
A12U U32C U34C G36A	0.08
G7C G17A U20A A26C G40U C45U	0.02
U9G U28A C45A	0.25
G5A A12C G36A	0.17
C3A A24C A41U C42U	0.24
C8G C23U A25C C31U	0.1
A4C G7U A11G A14C C46A	0.01

Variant	self-cleavage
A6G A12C A14C G30A C37A A39U C46U	0.01
G2A A6U C13G A16G A25C A26G	0.12
C8A C13U A24U A26G A39G	0.06
G17U G19U G29U	0.4
G1U G17C G22C	1
G2C A4U G17C U20G U28G	0.02
C3U G29U G30A	0.97
G1C C10A G29U C46U	0.05
U9G U28G C37A A39U	0.04
A6G C8U U34A C37G	0.43
G5C C10A G21C C46A	0.03
C31U U32C C37A	0.08
A24G G29A C42A C45U	0.4
G22A G29U G36A	0.13
C10G G19A A24C G33C	0.04
A6U U20C G35C G36U C37A	0.09
G21C C23G C45G C46G	0.26
A6G U9C C23G C31U U43G	0
C13U A24C U28C	0.01
G1U C8A C15A C18A G30U	0.07
A16G G17U C23G U34A	0.01
G5A G29C G40A C45U	0.01
A12C U32C U34A G35U G36U C37A	0.01
G27U U38A C46U	0.32

Variant	self-cleavage
A4U G5C A12G G36U G44U	0.04
G7C C10A G22A C37A	0.02
G5A C15U C23G G27A	0.04
G1C C13A A24C C31U G35U	0.01
C10G A14U G19A A25U C42U	0.02
G2A U9G A11U A14C C15A	0.01
C8A G30U U43C	0.33
G5A C18U G19A U20A	0.13
C15U U28C G35U U38G	0.01
G22C G27C C46A	0.41
A14U G33C U34A G44C	0.05
C8G G21U G35C	0.04
C3G A11C G44U	0.04
C3U A14G C23A U32C C42A	0.06
C18G G21A G36U	0.1
C8A A24U A25U G44A	0.17
G7C C18A A26U U32G	0.04
G29C G30C U34C C42U C45A	0.03
A4G G36A A39G C42U G44A	0.06
G1U C3A A11C C15U U43G	0.02
A4U G19A C37A	0.02
G1U G7U C8G G27U	0.05
A12C C18A A24C G35A	0.02
G1U G5C C45A	0.03

Variant	self-cleavage
A4G G5A A14C C37A	0.06
G1A G2C C10U G27C	0.03
G1U C13U C23A A25C A26G G27A	0.03
G19U C37U U38C C45A	0.02
G2U C13G A14G	0.01
U20G C23G A25G U28C A41G C46A	0.07
C15A A24C C37G U38A	0.02
U34A G36U C37A	0.04
C8G A14C A25C C31A	0.06
G2U U20C C23G A39G U43C	0.05
C8A C37U C42G C46A	0.03
U20G G22C G40U	0.01
C10G G17A A26U	0.04
C13U G19C C31U G44A	0.08
G2A A12U A26G U43C	0.04
C8G A14U G21A	0.06
G2C G21C C23A	0.19
C3A C15A G19C A25G G29U	0.09
G2A A25C G44C	1.2
U9G G44U C45U	0.22
G17U U20G G22A G29U U32C U43C	0.02
G1A G19C C42G	0.02
G5C A16U G33U	0.09
G1C A11G A16C G30C U38G	0.02

Variant	self-cleavage
G2C A12U C13G A24C	0.05
A12U C13A G27A U32G	0.03
G7A G19A C23U G33C	0.15
G1U G7C C23A G30U C37A	0.01
C13A C15G G17U C18U G21A U38G	0.04
G1U G7A C18U G33A G36U U43C	0.04
G17U G35A U38C U43A G44A	0.05
A4U C10U A16C	0.09
C8U G21C G30C A39G	0.04
G17A C18A G27C G30C C37U	0.02
A4U A6C C15A A25G	0.07
C3A A26C C31U	0.04
G36A U38C C42U	0.06
G1U C15G U34A G36A	0
C8G G17U U32C	0
G1A C3U C8G U28A A39G	1.93
C10A C13G G17U C18G	0.05
A6U C8G G40U A41U	0.01
G2A G21C G22C U28G	0.19
C13G G17U G40A	0
C18U G19U G22U	0.52
U9A A12U G17A U32G	0.04
A4U C10G C15A C23G G29A A39G C46U	0.01
G2A G19C U32C	0.29

Variant	self-cleavage
C3A U9A A11C A26U G27C	0.02
A14G G19U G21U	0.47
G7U C8U U38C	0.34
C18G C23A G29U	2.15
A12U U20A U28G C42G	0.01
G1U A14C C23U U32C	0.06
G5U C10U U28G	0.04
A4U G22C C23G G30A	0.12
U9G G17U A25C U28G G33U C37G G44U	0.06
C31A G33C C37U C46A	0.11
A14C G29A C42G C46U	0.02
C10A A14U A25C C31U A41C C45G	0.02
C23A A25C U28A	2.55
G29U C31U C37A A39U	0.04
A25G U34G C46U	0.01
G1U A12U A24C	0.02
G29U C31G A41G	0.1
C10A C13U C37A	0.03
C3U G7A A25G C42A C46U	0
G1A A6G G19U C45U	0.26
C10G A12C C45G	0.02
U9G U32A A39U	0.03
U34A C37U C42U	0.06
C18A G36A C37U	0.11

Variant	self-cleavage
C23U A26C G30U U43A	0.07
G2U A6U C13U A24C G30A U38A G40A	0.01
C15A U28A G33A	0.11
C13U C18U C42A	0.03
C18U U32G G36U	0.02
G21C A24G A25U G29A C37A C42G	0.07
G22A G27U G36C	0.03
A11G C13U G19U	0.01
G2U C10G U20A C42U C46A	0
G19U G21A A25U C46G	0.12
G2A C23G G30A	0.27
G5U U20C C23U G27A U28A C31G U34A	0.01
G5U C13U G17U G21C C45A C46G	0.02
G17A G19A G22C	0.25
C15U C18U G19U U20A C23G C31U U32A G40C	0.06
G17C G33A U34G	0.01
G30A U32G C37A	0.09
A6U A16U G22C	0.03
A24C C37A G40U A41U	0
G1C U20C G27U C45U	0.05
A4U C13U C15A C18U G40C	0.04
G2U C15U G30U	0.02
C13U G17U G19U G21U U34C G36C	0.02
